# Some of the results follow.
# B1: Gal 3 (Homo sapiens), P17931 (protein)
# chain: MADNFSLHDALSGSGNPNPQGWPGAWGNQPAGAGGYPGASYPGAYPGQAPPGAYPGQAPPGAYHGAPGAYPGAPAPGVYPGPPSGPGAYPSSGQPSAPGAYPATGPYGAPAGPLIVPYNLPLPGGVVPRMLITILGTVKPNANRIQLDFQRGNDVAFHFNPRFNENNRRVIVCNTKLDNNWGREERQSVFPFESGKPFKIQVLVEPDHFKVAVNDAHLLQYNHRVKKLNEISKLGISGDIDLTSASYTMI
# How the values were obtained:
# Assay in all cases: glycan array binding signal (z-score within array); higher = stronger binding
# Settings in all cases: glycan notation: IUPAC condensed, linker removed; mutation: A146Q
# [1] = target: Neu5Ac(a2-6)Gal(b1-4)GlcNAc(b1-2)Man(a1-3)Man(b1-4)GlcNAc(b1-4)GlcNAc
# Outline: (§1)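 Glycan array data came from 3228 arrays in the Consortium for Functional Glycomics database, and only arrays with an available protein sequence were kept. Glycan names were put into IUPAC-condensed notation, and columns mapping to the same glycan were averaged. The binding signal is a within-array Z-score, averaged across arrays of one protein sequence run at different concentrations or buffers and across linkers. A negative Z-score can be read as non-binding.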
# [2] = target: Neu5Ac(a2-6)Gal(b1-4)GlcNAc(b1-2)Man(a1-3)[Gal(b1-4)GlcNAc(b1-2)Man(a1-6)]Man(b1-4)GlcNAc(b1-4)GlcNAc
# Outline: as §1
# [3] = target: Neu5Ac(a2-6)Gal(b1-4)GlcNAc(b1-2)Man(a1-3)[GlcNAc(b1-2)Man(a1-6)]Man(b1-4)GlcNAc(b1-4)GlcNAc
# Outline: as §1
# [4] = target: Neu5Ac(a2-6)Gal(b1-4)GlcNAc(b1-2)Man(a1-3)[GlcNAc(b1-2)Man(b1-4)GlcNAc(b1-2)Man(a1-6)]Man(b1-4)GlcNAc(b1-4)GlcNAc
# Outline: as §1
# [5] = target: Neu5Ac(a2-6)Gal(b1-4)GlcNAc(b1-2)Man(a1-3)[Man(a1-6)]Man(b1-4)GlcNAc(b1-4)GlcNAc
# Outline: as §1
# [6] = target: Neu5Ac(a2-6)Gal(b1-4)GlcNAc(b1-2)Man(a1-3)[Neu5Ac(a2-6)Gal(b1-4)GlcNAc(b1-2)Man(a1-6)]Man(b1-4)GlcNAc(b1-4)GlcNAc
# Outline: as §1
# [7] = target: Neu5Ac(a2-6)Gal(b1-4)GlcNAc(b1-2)Man(a1-6)Man(b1-4)GlcNAc(b1-4)GlcNAc
# Outline: as §1
# [8] = target: Neu5Ac(a2-6)Gal(b1-4)GlcNAc(b1-2)Man(a1-6)[Gal(b1-4)GlcNAc(b1-2)Man(a1-3)]Man(b1-4)GlcNAc(b1-4)GlcNAc
# Outline: as §1
# [9] = target: Neu5Ac(a2-6)Gal(b1-4)GlcNAc(b1-2)Man(a1-6)[GlcNAc(b1-2)Man(a1-3)]Man(b1-4)GlcNAc(b1-4)GlcNAc
# Outline: as §1
# [10] = target: Neu5Ac(a2-6)Gal(b1-4)GlcNAc(b1-2)Man(a1-6)[Man(a1-3)]Man(b1-4)GlcNAc(b1-4)GlcNAc
# Outline: as §1
# [11] = target: Neu5Ac(a2-6)Gal(b1-4)GlcNAc(b1-3)Gal(b1-3)GlcNAc
# Outline: as §1
# [12] = target: Neu5Ac(a2-6)Gal(b1-4)GlcNAc(b1-3)Gal(b1-4)GlcNAc
# Outline: as §1
# [13] = target: Neu5Ac(a2-6)Gal(b1-4)GlcNAc(b1-3)Gal(b1-4)GlcNAc(b1-3)Gal(b1-4)GlcNAc
# Outline: as §1
# [14] = target: Neu5Ac(a2-6)Gal(b1-4)GlcNAc(b1-3)Gal(b1-4)[Fuc(a1-3)]GlcNAc(b1-3)Gal(b1-4)[Fuc(a1-3)]GlcNAc
# Outline: as §1
# [15] = target: Neu5Ac(a2-6)Gal(b1-4)GlcNAc(b1-3)GalNAc
# Outline: as §1
# [16] = target: Neu5Ac(a2-6)Gal(b1-4)GlcNAc6S
# Outline: as §1
# Neu5Ac(a2-6)GalNAc = target: Neu5Ac(a2-6)GalNAc
# Outline: as §1
# [17] = target: Neu5Ac(a2-6)GalNAc(b1-4)GlcNAc
# Outline: as §1
# [18] = target: Neu5Ac(a2-6)GlcNAc(b1-4)GlcNAc
# Outline: as §1
# [19] = target: Neu5Ac(a2-6)GlcNAc(b1-4)GlcNAc(b1-4)GlcNAc
# Outline: as §1
# Neu5Ac(a2-8)Neu5Ac = target: Neu5Ac(a2-8)Neu5Ac
# Outline: as §1
# [20] = target: Neu5Ac(a2-8)Neu5Ac(a2-3)Gal(b1-4)Glc
# Outline: as §1
# [21] = target: Neu5Ac(a2-8)Neu5Ac(a2-3)[GalNAc(b1-4)]Gal(b1-4)Glc
# Outline: as §1
# [22] = target: Neu5Ac(a2-8)Neu5Ac(a2-8)Neu5Ac
# Outline: as §1
# [23] = target: Neu5Ac(a2-8)Neu5Ac(a2-8)Neu5Ac(a2-3)Gal(b1-4)Glc
# Outline: as §1
# [24] = target: Neu5Ac(a2-8)Neu5Ac(a2-8)Neu5Ac(a2-3)[GalNAc(b1-4)]Gal(b1-4)Glc
# Outline: as §1
# [25] = target: Neu5Ac(a2-8)Neu5Ac(a2-8)Neu5Ac(a2-8)Neu5Ac(a2-3)[GalNAc(b1-4)]Gal(b1-4)Glc
# Outline: as §1
# [26] = target: Neu5Ac(b2-6)Gal(b1-4)GlcNAc
# Outline: as §1
# Neu5Ac(b2-6)GalNAc = target: Neu5Ac(b2-6)GalNAc
# Outline: as §1
# [27] = target: Neu5Ac9Ac(a2-3)Gal(b1-3)GlcNAc
# Outline: as §1
# [28] = target: Neu5Ac9Ac(a2-3)Gal(b1-4)GlcNAc
# Outline: as §1
# [29] = target: Neu5Ac9Ac(a2-6)Gal(b1-4)GlcNAc
# Outline: as §1
# [30] = target: Neu5Gc(a2-3)Gal(b1-3)GlcNAc
# Outline: as §1
# [31] = target: Neu5Gc(a2-3)Gal(b1-3)[Fuc(a1-4)]GlcNAc
# Outline: as §1
# Neu5Gc(a2-3)Gal(b1-4)Glc = target: Neu5Gc(a2-3)Gal(b1-4)Glc
# Outline: as §1
# [32] = target: Neu5Gc(a2-3)Gal(b1-4)GlcNAc
# Outline: as §1
# [33] = target: Neu5Gc(a2-3)Gal(b1-4)[Fuc(a1-3)]GlcNAc
# Outline: as §1
# [34] = target: Neu5Gc(a2-6)Gal(b1-4)GlcNAc
# Outline: as §1
# Neu5Gc(a2-6)GalNAc = target: Neu5Gc(a2-6)GalNAc
# Outline: as §1
# [35] = target: Neu5Gc(b2-6)Gal(b1-4)GlcNAc
# Outline: as §1
binder,measurement,setting,value
B1,glycan array binding signal (z-score),[1],-0.198
same,glycan array binding signal (z-score),[2],-0.198
same,glycan array binding signal (z-score),[3],-0.195
same,glycan array binding signal (z-score),[4],-0.134
same,glycan array binding signal (z-score),[5],-0.19
same,glycan array binding signal (z-score),[6],-0.143
same,glycan array binding signal (z-score),[7],-0.201
same,glycan array binding signal (z-score),[8],-0.199
same,glycan array binding signal (z-score),[9],-0.191
same,glycan array binding signal (z-score),[10],-0.197
same,glycan array binding signal (z-score),[11],1.03
same,glycan array binding signal (z-score),[12],0.21
same,glycan array binding signal (z-score),[13],1.65
same,glycan array binding signal (z-score),[14],-0.162
same,glycan array binding signal (z-score),[15],-0.189
same,glycan array binding signal (z-score),[16],-0.197
same,glycan array binding signal (z-score),Neu5Ac(a2-6)GalNAc,-0.205
same,glycan array binding signal (z-score),[17],-0.18
same,glycan array binding signal (z-score),[18],-0.188
same,glycan array binding signal (z-score),[19],-0.187
same,glycan array binding signal (z-score),Neu5Ac(a2-8)Neu5Ac,-0.165
same,glycan array binding signal (z-score),[20],0.039
same,glycan array binding signal (z-score),[21],-0.198
same,glycan array binding signal (z-score),[22],-0.196
same,glycan array binding signal (z-score),[23],-0.173
same,glycan array binding signal (z-score),[24],-0.188
same,glycan array binding signal (z-score),[25],-0.168
same,glycan array binding signal (z-score),[26],-0.176
same,glycan array binding signal (z-score),Neu5Ac(b2-6)GalNAc,-0.151
same,glycan array binding signal (z-score),[27],-0.185
same,glycan array binding signal (z-score),[28],-0.197
same,glycan array binding signal (z-score),[29],-0.206
same,glycan array binding signal (z-score),[30],-0.17
same,glycan array binding signal (z-score),[31],-0.186
same,glycan array binding signal (z-score),Neu5Gc(a2-3)Gal(b1-4)Glc,-0.199
same,glycan array binding signal (z-score),[32],-0.185
same,glycan array binding signal (z-score),[33],-0.178
same,glycan array binding signal (z-score),[34],-0.193
same,glycan array binding signal (z-score),Neu5Gc(a2-6)GalNAc,-0.201
same,glycan array binding signal (z-score),[35],-0.164

# — the supplement of paper PMC8728848
